{
  "source": "patent US20220153862A1",
  "about": "(CSPC MEGALITH BIOPHARMACEUTICAL, published 2022)",
  "binders": {"B1": {"name": "DP002-HC1LC1-ADC (other)", "heavy": "QVQLVQSGAEVKKPGASVKVSCKASGYTFTDYSINWVRQAPGQGLEWMGVISTYYGDASYNQKFKGRVTMTTDTSTSTAYMELRSLRSDDTAVYYCARYGDGYNQFDYWGQGTMVTVSS[human IgG1 constant region cut from this listing]", "light": "DIVMTQSPDSLAVSLGERATINCRVSESVDSYGNNFMHWYQQKPGQPPKLLIYRASNLESGVPDRFSGSGSGTDFTLTISSLQAEDVAVYYCQQSYEDPYTFGQGTKLEIKRTVAAPSVFIFPPSDEQLKSGTASVVCLLNNFYPREAKVQWKVDNALQSGNSQESVTEQDSKDSTYSLSSTLTLSKADYEKHKVYACEVTHQGLSSPVTKSFNRGEC", "modifications": "conjugated to monomethyl auristatin E (MMAE) at a drug-antibody ratio (DAR) of 2; the example does not state the site or the chain"}},
  "key": {"[1]": {"molecular_target": "T1, TROP2 expressed on human cancer cell lines (human, UniProt P09758 27-323)", "T1 sequence": "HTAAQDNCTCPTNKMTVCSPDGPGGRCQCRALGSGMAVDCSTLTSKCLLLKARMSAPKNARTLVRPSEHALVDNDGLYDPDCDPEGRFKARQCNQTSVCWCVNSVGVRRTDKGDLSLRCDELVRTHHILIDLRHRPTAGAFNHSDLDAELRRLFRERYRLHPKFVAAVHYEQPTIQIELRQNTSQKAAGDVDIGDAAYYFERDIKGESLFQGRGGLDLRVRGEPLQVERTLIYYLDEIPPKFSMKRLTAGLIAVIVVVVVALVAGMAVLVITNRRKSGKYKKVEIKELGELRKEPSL", "assay": "cell-based or functional assay"}, "[2]": {"molecular_target": "T1, TROP2 expressed on human cancer cell …", "assay": "cell-based or functional assay", "remark": "listed apart in the source"}},
  "data": [
    {"binder": "B1", "values": [
      {"measurement": "IC50 (nM), in vitro cytotoxicity, BxPC-3 cells", "setting": "[1]", "value": 0.16, "unit": "nM"},
      {"measurement": "IC50 (nM), in vitro cytotoxicity, HCC1954 cells", "setting": "[1]", "value": 0.18, "unit": "nM"},
      {"measurement": "IC50 (nM), in vitro cytotoxicity, NCI-N87 cells", "setting": "[1]", "value": 0.04, "unit": "nM"},
      {"measurement": "IC50 (nM), in vitro cytotoxicity, HCC38 cells", "setting": "[2]", "value": "> 100", "unit": "nM"},
      {"measurement": "IC50 (nM), in vitro cytotoxicity, MDA-MB-468 cells", "setting": "[2]", "value": 0.15, "unit": "nM"}
    ]}
  ]
}
